Source: PubChem BioAssay AID485294 (National Center for Advancing Translational Sciences (NCATS), 2010)
About 150 (0.041%) of roughly 370,000 compounds were called active. The inconclusive results got no clear call from the source; some entries with a clear call stand among them for comparison. The call rests on the fitted dose curve; in most records, active means well fitted inhibition curve with a large enough effect; inconclusive means small, poorly fitted or top-dose-only effect; inactive means flat fitted curve, though single readings scatter. Potencies of inconclusive entries are left out as doubtful fits.

Target: Beta-lactamase (Escherichia coli (strain K12)) (UniProt P00811)
Experiment: qHTS Inhibitors of AmpC Beta-Lactamase (assay with detergent); further: nearly all actives have a fitted effect of over 25% in size
Conditions: AmpC hydrolysis of nitrocefin, absorbance 480 nm, 0.01% Triton; series mostly up to 114 µM
Method in brief: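 20 mM phosphate pH 7.0 + 0.01% (detergent screen) or 0.0001% Triton X-100; 5.3 nM AmpC reagent; cpd preinc 15 min RT; nitrocefin (800 uM stock) to start; A480 q20 s × 4 min; Activity was normalised to no-enzyme and no-compound control wells.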
Potency means the concentration at half of the fitted maximal effect; tags describe the fitted curve by direction and shape.

UniProt P00811, sequence (P00811 whole entry, looked up): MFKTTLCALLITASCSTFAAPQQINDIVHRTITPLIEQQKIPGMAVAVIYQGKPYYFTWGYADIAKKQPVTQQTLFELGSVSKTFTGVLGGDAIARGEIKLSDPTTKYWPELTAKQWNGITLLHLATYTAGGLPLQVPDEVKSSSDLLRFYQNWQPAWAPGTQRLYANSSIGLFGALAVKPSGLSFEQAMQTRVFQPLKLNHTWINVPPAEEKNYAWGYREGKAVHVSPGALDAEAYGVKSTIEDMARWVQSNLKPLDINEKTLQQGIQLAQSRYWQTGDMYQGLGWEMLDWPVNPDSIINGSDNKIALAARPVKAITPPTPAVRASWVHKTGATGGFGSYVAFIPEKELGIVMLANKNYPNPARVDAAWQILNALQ

SMILES	Potency
Cc1cc(C)c(S(=O)(=O)Cc2ccc(Cl)cc2)c(=O)[nH]1	inconclusive [inhibitor, partial curve, poor fit]
O=C(Nc1ccc2c(c1)OCO2)c1c[nH]c(=O)n(-c2ccc(F)cc2)c1=O	inactive
Cc1ccc(NC(=O)c2ccc(Cl)c(N3C(=O)C=CC3=O)c2)cc1	inactive
CCC(C)/C(C)=N/NC(=O)c1cn(-c2ccccc2)nc1-c1ccccc1 (stereo not drawn)	inconclusive [inhibitor, full curve, poor fit]
CCOC(=O)c1c(CC(C)C)csc1NC(=O)COC(=O)c1ccc(O)cc1	inconclusive [inhibitor, full curve, poor fit]
O=C(CNC(=S)N(Cc1ccccc1)Cc1ccccc1F)NCCc1ccc(Cl)cc1	inconclusive [inhibitor, full curve]
COC(=O)c1ccc(NC(=S)N2CCN(Cc3ccc(Cl)cc3)CC2)cc1	inconclusive [inhibitor, full curve, poor fit]
Cc1cc(N2C(=O)C(=O)/C(=C(/O)c3ccc(F)cc3)C2c2ccc(F)cc2)no1 (stereo not drawn)	inconclusive [inhibitor, partial curve, poor fit]
O=C(CS(=O)(=O)c1ccc(Cl)cc1)Nc1nc2ccc(Br)cc2s1	inactive
C/C(=N\NC(=O)C(c1ccccc1)c1ccccc1)c1ccc(O)cc1	inconclusive [inhibitor, partial curve, poor fit]
Cc1ccc(/C(N)=N/OC(=O)CCc2ccccc2)cc1	inactive
Cn1c(=O)n(C)c2cc(CNCc3ccc(F)cc3)ccc21	inactive
CN1C(=O)Cc2cc(S(=O)(=O)Nc3ccc(N4CCOCC4)cc3)ccc21	inconclusive [inhibitor, partial curve, poor fit]
O=S(=O)([N-]c1nc2ccccc2nc1-[n+]1ccccc1)c1ccccc1	inconclusive [inhibitor, full curve, poor fit]
COCCn1c(C)cc(/C=C(\C#N)C(=O)OCC(=O)N(C)c2c(N)n(Cc3ccccc3)c(=O)[nH]c2=O)c1C	inconclusive [inhibitor, full curve]
O=c1n(Cc2ccc([N+](=O)[O-])cc2)c2ccccc2c2nc(-c3ccccc3)nn12	inactive
CC(OC(=O)C1=COCCO1)C(=O)Nc1ncc(Cl)cc1Cl (stereo not drawn)	inconclusive [inhibitor, full curve, poor fit]
CC(C)(C)c1ccc(/C=N/Nc2ccc(C(=O)O)cc2)cc1	inactive
